Data as given in the supplement of paper PMC5499739.
Whole data set: some 16,000 sequences, median “Z-score” near -0.37, cut for the highest 2% near 3.1. The list shows a part of the results.

The sequences below were run on RBM10 RRM1-ZnF-RRM2 (GST-tagged construct) (assay: RNAcompete 7-mer binding Z-score; higher = stronger binding preference).
Summary of the method: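 A one-sided Z-score for enrichment, taken across the probes containing each heptamer motif, was assigned to every such motif. The RNA came from a designed pool of 241 399 sequences up to 41 nt (1.5 nmol), bound by 20 pmol of GST-tagged RBM10 constructs in 1 ml Hepes pH 7.8 buffer with glutathione Sepharose beads for 30 min at 4°C. Four 2-min washes at 4°C preceded identification of bound RNA by microarray hybridisation.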

Sequence | RNAcompete 7-mer binding Z-score
GCUGCCC | -0.613
GCUCGGU | 0.0058
GCAUGCU | -0.53
UCGCCGA | -0.752
UGUAGGA | 1.9
AAUGCAA | 0.0714
CUGCAAU | -0.675
GGCAAUC | 0.162
AUACAAA | -0.26
CGGUAUU | 0.162
AGUCCCC | -0.395
ACCUGGC | -0.643
CAAAGAU | -0.282
CGACACU | -0.541
UAAGCUA | -0.406
UUAUGGU | 0.272
AAUUUGU | -0.551
UGAUGUG | 0.712
CGCUUUC | -0.77
GCUAACA | -0.202
GUGCCGC | -0.231
AGUUCGU | -0.271
AUGGACC | 0.599

Sequence | RNAcompete 7-mer binding Z-score
UUGGUCU | -0.3
AUUUACU | -0.668
GUUCCUG | -0.632
GCGAUCC | -0.672
UCUUAAU | -0.672
CCUAUUG | -0.65
UUGCCCA | -0.763
CGGAUCC | -0.067
GCGCUAA | -0.599
GCAGAGA | 1.16
UUUCCAG | -0.646
UACAUCU | -0.741
AGGUGCC | 0.192
AAGAUUU | -0.588
CGUCCCC | -0.439
CACCCGU | -0.624
GAUAUCA | -0.198
CAAUCUA | -0.712
UUCACAC | -0.763
UGGACGU | 1.24
ACAUCUU | -0.872
AACGUCC | -0.865
AGGGUUU | 2.4

Sequence | RNAcompete 7-mer binding Z-score
CGGCGCC | -0.318
CUCGUAU | -0.57
GUUGUGG | 1.75
GUGAAAA | 0.297
UACGGCU | -0.333
CCUCAGG | -0.493
GAAUAUC | -0.453
GGAUAAG | 2.3
UUUCUCU | -0.664
GGUUCUA | -0.289
UGGCACC | -0.0998
CGGGUAA | 1.81
UUACAAG | -0.296
GAAGGAU | 3.32
AAGUGAA | 1.05
GUCCUUA | -0.712
GGUGAGG | 4.3
AUGCCGC | -0.741
GAAGUUG | 1.16
GCGUACC | -0.413
GCCCCCU | -0.551
ACUUCAU | -0.77
CGGUGCC | -0.122

Sequence | RNAcompete 7-mer binding Z-score
CUUGCAC | -0.876
GUUGAAU | 0.0459
UUAGGGU | 3.02
AACACUU | -0.734
AGGUUAG | 2.16
GAUACGC | -0.347
ACAACAG | 0.359
AACUGCA | -0.369
GAUGGGA | 3.8
GUUAUCA | -0.165
GACUUCC | -0.887
GCAGGGG | 3.15
AAAAAGA | 0.024
AUUCCAG | -0.395
GACAUAU | -0.293
CUGUUGG | -0.439
UAAUUGC | -0.522
UUCCAGU | -0.559
AAACCGA | -0.431
UAAGGAG | 1.9
UGAUUUA | -0.3
GUGGGUA | 3.07
CGAUCAA | -0.198

Sequence | RNAcompete 7-mer binding Z-score
UUGUCGA | -0.562
GGAGCCU | -0.209
CAUUUAG | -0.657
UCACCAA | -0.65
AUGGGAC | 2.47
GUGCGCU | 0.115
UUGAGGG | 3.15
UUGAAUA | -0.355
UUGAUGA | 0.0823
UCACGGG | 0.803
CUAGAUC | -0.683
UCAUACU | -0.759
ACGCCGC | -0.723
GUAUCGG | 0.752
GUGCUCA | -0.286
UAACGUC | -0.511
CGAGAAA | -0.00877
CUCGAUA | -0.595
AAAUUUU | -0.825
AAGAGCC | -0.541
AGAACUG | -0.114
CGGGAGA | 1.32
GGCCUGG | 0.0532

Sequence | RNAcompete 7-mer binding Z-score
CACGUCU | -0.661
GACAAGG | 3.01
GCUCUGA | -0.821
GGGUUAU | 2.57
AUUCAGU | -0.22
AUCUGUC | -0.803
CUAGGCA | -0.078
UGUUCCC | -0.712
GAGUUCU | -0.5
AAAGCAG | 0.512
CCAUGAG | -0.264
CCGUUUA | -0.897
GACAGGC | 0.8
AUAGACA | 0.0532
GUAAAUU | -0.129
GAGCUUA | -0.446
UCACCCU | -0.766
UUAGAGU | 0.137
AUGGUAC | 1.05
UCGCGGC | -0.391
AAAUCGG | 0.53
GCACCAG | -0.125
ACAACAU | -0.318

Sequence | RNAcompete 7-mer binding Z-score
CCAUAGU | -0.643
CUAAAUU | -0.664
UGAUUAU | -0.57
CCUUUGA | -0.894
GCUUUAU | -0.857
AGUACAU | -0.0889
ACUUUUU | -0.781
UGUGUUU | -0.296
GUCGAUA | -0.103
CGUUUUA | -0.704
AACAAAA | -0.235
CAUGGGC | 1.76
ACCGCAC | -0.624
UACUCUG | -0.883
CCGUUCC | -0.996
GUACCAC | -0.256
GUGGGCU | 1.94
UCUAGGU | -0.103
UGAUAGU | -0.184
CUACCAU | -0.664
AUGUAAC | -0.147
UUCCCCG | -0.486
UGAGACU | -0.315

Sequence | RNAcompete 7-mer binding Z-score
ACAUUAA | -0.384
CGCGUUU | -0.923
GAUUGUA | 0.0204
GUACAGA | 0.494
CACAAGC | -0.559
AGGCAUA | 0.239
AAGCUCG | -0.296
AAACUUG | -0.646
AGGACGC | 0.0459
AACUGUA | -0.515
UGUCGGA | 0.232
CUUUCGC | -0.967
GUCUGUC | -0.504
ACGGCCA | -0.202
UGGAAAC | 1.19
CCCUUUA | -0.999
CAAGGGA | 2.5
AGUACGG | 1.39
CUCUAUU | -0.919
GUCAUCA | -0.515
ACUACCG | -0.606
GGGAUCU | 0.618
